# Data reported in the RNAGym collection of RNA variant scans (doi:10.7554/elife.90254).
# Read counts are not given, so values of variants with three or more changes are uncertain.
# B1: LINE1-full (parent)
# chain: UACGUAGGUGGUUUUCCCCUGAUAGUGCUAAGGGGGCCUGGAAGUUUGGACUGGGCAGAGCUCAACACAGCGUGGCAAAGUGGCUGUGGCUAGACUGCCUCUCUGGAUUCCUCGUCACUCAGCAGGGCAUCUCUGAGAGAAAUGCC
# Variants of: B1
# Test: self-cleavage, relative activity (ratio to wild type); higher = more cleavage; in vitro, sequencing; the parent is a self-cleaving ribozyme
row,Variant,self-cleavage
1,UACGUAGGCGGUUUUCCCCUGAUAGUGCUAAGGGGGCCUGGAAGUUUGGACUGGGCAGAGCUCAACACAGCGUGGCAUAGUGGCUGUGGCUAGACUGCCUCUCUGGAUUCCACGUCACUCAGCAGGGCGUCUCUGAGAGAAAUGCC [U9C A78U U112A A129G],2.14
2,CACGUGGGUGGUUCUCCCCUGAUAGUGCUAAGGGGGCCUGGAAGUUUGGACUGGGCAGAGCUCAACACAGCGUAGCAAAGUGGCAGUGGCUAGACUGCCUCUCAGGAUUCCUCGCCACUCAGCAGGGCACCUCUGAGAGAAAUGCC [U1C A6G U14C G74A U85A U104A U115C U130C],0
3,UACGUAGGCGGUUUUCCCCUGAUUGUGCCAAGGGGGCCUGGAAGUUUGGACUGGGCAGAGCUCAACACAGCGUGGCAAAGUGGCUGUGGCUAGACUGCCUCUCUGGAUUCCUCGUCACUCAGCAGGGCAUCUCUGGGAGAAUUGCC [U9C A24U U29C A136G A142U],0.32
4,UACGUAGGUGGUUUUCCCCUGAUAGUGCUAAGGGGGCCUGGAAGUUUGGACUGGGCAGAGCUCAACACAGCGUGGCGAAGUGGCUGUGGCUGGACUGCCUCUCUGGAUUCCUCGUCACUCAGCAGGGCAUCUCUGAGAGUAAUGCC [A77G A92G A140U],0.19
5,UACGUAGGUGGUCUUCCCUUGAUAGUGCUAAGGGGGCCUGGAAGUUUGGACUGGGCAGAGCUCAACACAGCGUGGCAAAGUGGCUGUAGCUAGACUGCCUCUCUGGAUCCCUCGUCACUCAGCAGGGCAUCUCUGAGAGAAAUGCC [U13C C19U G88A U109C],0.05
6,UACGUAGGUGGUUUUCCCCUGAUAGCGCUAAGGGGGCCUGGAAGUUUGGACUGGGCAGAGCUCAGCACAGCGCGGCAAAGUGGCUGUGGCUAGACUGCCUCUCUGGAUUCCUCGUCACUCAGCAGGGCAUCUCUGAGAGAAAUGCC [U26C A65G U73C],0
7,UACGUAGGUGGUUUUCCCAUGAUAGUGCUAAGGGGGCCUGGAAGUUUGGACUGGGCAGAGCUCAACUCAGCGUGGCAUAGUGGCUGUGGCUAGACUGCCUCUCUGGAUUCCUCGUCACUCAGCAGGGCAUCUCUGAGAGGAAUGCC [C19A A67U A78U A140G],0.15
8,UACGUAGGUGGUUUUCCCCUGAUAGAGCUAAGGGGGCCUGGAAGUUUGGACUGGGCAGAGCUCAACACAGCGUGGCAAAGUGGCUGUGGUUAGGCAGCCUCUCUGGAUUCCUUGUCACUCAGCAGGGCAUCCCUGAGAGAAAUGCC [U26A C90U A94G U96A C113U U132C],0.04
9,UACGUAGGUGGUUUUCCCCUGAUAGUGCUAAGGGGGCCUGGAAGCUUGGACUGGGCAGAGCUCAACACAGCGUGGCAAAGUGGCUGUGGCUAGACUGCCUCUCUGGAUUCCUCGUCACUCAGCAGGGCAUCUCUAAGAGAAGUGCC [U45C G135A A142G],1.39
10,UACGUAGGAGGUUCUCCCCUGAUAGUGCUAAGGGGGCCUGGAAGCUUGGACUGGGCAGAGCUCAACACAGCGUGGCAAAGUGGCAGUGGCUAGACUGCCUCUCUGGAUUCCUCGUCACUCAGCAGGGCAUCUCUGAGAGAAAUGCC [U9A U14C U45C U85A],0.3
11,UACGUAGGUGGUUUACCCCUGACAGUGCUAAGGGGGCCUGGAAGUUUGGACUGGGCAGAGCUCAACACAGCGGGGCAAAGUGGCUGUGGCUAGACUGCCUCUCUGGACUCCUCGUCACUCAGCAGGGCAACUCUGAGAGAAAUGCC [U15A U23C U73G U108C U130A],0
12,UACGUAGGUGGCUUUCCCCUGUUAGUGCUAAGGGGGCCUGGAAGUUUGGACUGGGCAGAGCUCAACACAGCGUGGCAAAGUGGCUGUGGCUAGACUGCCUCUCUGGAUUCCUCGUCACUCAGCAGGGCAUCUCUGAGAGAAAAGCC [U12C A22U U143A],1.16
13,UACGUAGGUGGUUUUCCCCUGAUAGUGCUAAGGGGGCCUGGAAGUUUGGACUGGGCGGAGCUCAACACAGCGUGGCAAAGUGGCUGUGGCUAGACUGCCUCUCUGGAUUCCUCGUCACUCAGCAGGGCACCUCUGAGUGAAAUGCC [A57G U130C A138U],1.41
14,UACGUGGGUGGUUUACCCCUGAUAGUGCUAAGGGGGCCUGGAAGUUUGGACUGGGCAGAGCUCAACACAGCGUGGCAAAGUGGCUGUGGCUAGACUGCCUCUCUGGAUUCCUCGUCACUCAGCAGGGCAUCUCGGAGAGAAAUGCC [A6G U15A U134G],1.75
15,UACGUAGGUGGUUUUCCCCCGAUAGUGCUAAGGGGGCCUGGAAGUAUGGACUGGGCAGAGCUCAACACAGCGUAGCAAAGUGGCUGUGGCUAGACUGCCUCUCUGGAUUCCUCGUCACACAGCAGGGCAUCUCUGAGAGAAAUGCC [U20C U46A G74A U119A],0.75
16,UACGUAGGUGGUUUUCCCCUGAUAGUGCUAAGGGGGCCUGGAAGUUCGGACUGGGCAGAGCUCAACACAGCGUGGCAAAGUGGCUGUGGCUAGACUGCCUCUCUGGAUUCCUCGGCACUCAGCAGGGCAUCUCUGAGAGAAGUGCC [U47C U115G A142G],1.31
17,UACGUAGGUGGUUUUCCCCUGAUUGUGCUAAGGGGGCCUGGAAGUUUGGGCUGGGCAGAGCUCAACACAACGUGGCAAAGUGGCUGUGGCUAGACUGCCUCUCUGGAUUCCUCGUCACCCAGCAGGGCAUCUCUGAGAGAAAUGCC [A24U A50G G70A U119C],0.15
18,UACGUAGGUGGUUUUCCCCUGAUAGUGCUAAGGGGGCCUGGAAGUUUGGACUGGGCAGUGCUCAACACAGCGUGGCAAGGUGGCUGUGGCUAGACUGCCUCUCUGGAUUCCUCGUCACACAGCAGGGCAUCUCUGAGAGAAAUGCC [A59U A79G U119A],0.79
19,UACGUAGGUGGUCUUCCCCUGAUAGUGCUAAGGGGGCCUGGAAGUUUGGACUGGGCAGAGCUCGACACAGCGUGGCAAAGUGGCUGUGGCUAGACUGCCUCUCUGGGUUCCUCGUCACUCAGCAGGGCAUCUCUGAGAGAAAUGCC [U13C A64G A107G],0
20,UACGUAGGUGGUUUUCCCCUGAUAGUGCUAAGGGGGCCCGGAAGUUUGAACUGGGCAGAGCUCUACACAGCGUGGCAAAGUGGCUGUGGCUAGACUGCCUCUCUGGAUUCCUCGUCACUCAGCAGGGCAUCUCUGAGAGAAAUGCC [U39C G49A A64U],0.39

row,Variant,self-cleavage
1,UACGUAGGUGGUUUUCCCCUGAUAGUGCUAAGGGGGCCUGGAAGUUUGGACUGGGCAGAGCCCAACACAGCGUGGCAAAGUGGCUGUGGCUGGACUGCCUCUCUGGAUACCUCGUCACUCAGCAGGGCAUCUCUGGGAGAAAUGCC [U62C A92G U109A A136G],0.04
2,UACGUAGGUGGUUUUCCCCUGAUAGUGCUAAGGGGGCCUGGAAGUUUGGACUGGGCAGAGCUCAACACAGCGUGGCAAAGUGGCUGUGGGUAGACUGCCUCUCUGGAUUCCUCGUCACACAGCAGGGCACCUCUGAGAGAAGUGCC [C90G U119A U130C A142G],0.03
3,UACGUAGGUGGUUUUCCCCUGAUAGCGCUAAGGGGGCCUGGAAGUUUGGACUGGGCAGAGCUCAACACAGCGUGGCAAAGUGGCUGCGGCUAGACUGCCUCUCUGGAUUCCUCGUCACUCAGCAGGGCAUCUCUGAGGGAAAUGCC [U26C U87C A138G],0.4
4,UACGCAGGUGGUUCUCCCCUGAUAGUGCUAAGGGGGCCUGGAAGUCAGGACUGGGCAGAGCUCAACACAGCGUGGCAAAGUGGCUGUGGCUAGACUGCCUCUCUGGAUUCCUCGUCACUCAGCAGGGCAUCUCUGAGAGAAAUGCC [U5C U14C U46C U47A],1.51
5,UACGUAGGUGGUUUUCCCCUGAUAGUGCUGAGGGGGCCUGGAAGUUUGGACUGGGCAGAGCUCAUCACAGCGUGGCCAAGUGGCUGUGGCUAGACUGCCUCUCUGGAUUCCUCGUCACUCAGCAGGGCAUCUCAGAGAGAAAUGCC [A30G A65U A77C U134A],0.22
6,UACGUAGGUGGUUUACCCCUGAUAGUGCUAAGGGGGCCUGGAAGUUUGGACUGGGCAGAGCUCAACACAGCGUGGCAAAGUGGCUGUGGCUAGAUUGCCUCUCUGGAUUCCUCGUCACUCAGCAGGGCAUCUCUGAGGGAAAUGCC [U15A C95U A138G],0.27
7,UGCGUAGGUGGUUUUCCCCUGAUGGUGCUAAGGGGGCCUGGAAGUUUGGACUGGGCAGAGCUCAACACAGCGUGGCAAAGUGGCUGUGGCUAGACUGCCUCUCUGGAUUCCUCGUCACCCAGCAGGGCAUCUCUGAGAGAAAUGCC [A2G A24G U119C],1.31
8,UACGUAGGUGGUUUUCCCCUGACAGUGCUAAGGGGGCCUGGAAGCUUGGACUGGGCAGAGCUCAACACAGCGUGGCAAAGUGGCUGUGGCUAGACUGCCUCUCUGGAUUCCUCGUCACUCAGCAGGGCAUCUCUGAGAGAGAUGCC [U23C U45C A141G],0.69
9,UACGUAGGUGGUUUUCCCCUGAUAGUGCUAAGGGGGCCUGGAAGCUUGGACUGGGCAGAGCUCAACACAGCGUGGCAAAGUGGCUGUGGCUAGACUGCCUCUCUGGAUUCCUCGUCCCUCAGCAGGGCAUCUCUGAGGGAAAUGCC [U45C A117C A138G],0.61
10,UACGUAGGUGGUUUUCCCCUGAUAGUGCUAAGGGGGCCUGGAAGUUUGGGCUGGGCAGAGCUCAACACAGCGUGGCAAAGAGGCUGUGGCUAGACUGCUUCUCUGGAUUCCUCGUCACUCAGCAGGGCAUCUCUGAGGGAAGUGCC [A50G U81A C99U A138G A142G],0.43
11,UACGUAGGUGGUUUUCCCCUGAUUGUGCUAAGGGGGCCUGGAAGUUUGGACUGGGCAGAGCUCAACACAGCGUGGCUAAGUGGCCGUGGCUAGACUGCCUCUCCGGAUUCCACGUCACUCAGCAGGGCAUCUCUGAGAGAAAUGCC [A24U A77U U85C U104C U112A],0.26
12,UACGUAGGUGGUUUUCCCCUGGUAGUGCUAAGGGGGCCUGGAAGUUUGGACUGGGCAUAGCUCAACACAGCGUGGCAAAGUGGCUGUGGCUGGACUGCCUCUCUGGAUUCCUCGUCACUCAGCAGGGCAUCUCUGAGGGAAAUGCC [A22G G58U A92G A138G],0
13,UACGUAGGUGGUUUCCCCCUGAUAGUGCUAAGGGGGCCUGGAAGUUUGGACUGGGCAGAGCUCAACACAGCGUGGCAAAGCGGCUGUGGCUAGACUGCCUCUCUGGAUUCCUCGACACUCAGCAGGGCAUCUCUGAGAGAAAUGCC [U15C U81C U115A],1.55
14,UACGUAGGUGGUUUUCCCCUGAUAGUGCUAAGGGGGCCUGGAAGUUAGGACUGGGCAGAGCUCAACACAGCGUGGCAGAGUGGCUGUGGCUAGGCUGCCUCUCUGGAUUCCUCGUCACUCAGCAGGGCAUCUCUGAGAGAGAUGCC [U47A A78G A94G A141G],0.13
15,AACGUAGGUGGUUUUCCCCUGAUAGUGCUAAGGGGGCCCGGAAGUUUGGACUGGGCAGAGCUCAACACAGCGUGGCAAAGUGGCUGUGGCUAGACUGCCUCUCUGGAUUCCUCGUCGCUCAGCUGGGCAUCUCUGAGAGAAAUGCC [U1A U39C A117G A124U],1.67
16,UACGUAGGUGGUUUUCCCCUGAUAGUGCUAAGGGGGCCUGGAAGUUUGGACUGGGCAGAGCUCAACACAGCGUGACAAAGUGGCUGUGGCUAGACAGCCUCUCUGGAUUCCUCGUCACUCAGCAGGGCUUCUCUGAGAGAAAUGCC [G75A U96A A129U],0.04
17,UACGUAGGUGGUCUUCCCCCGAUAGUGCUAAGGGGGCCUGGAAGUUUGGACUGGGCAGAGCUCAACACAGCGUGACAAAGUGGCUGUGGCUAGACUGCCUCUCUGGAUUCCUCGUCACUCAGCAGGGCAUCUCUGAGAGAAAUGCC [U13C U20C G75A],0.57
18,AACGUAGGUGGUUUUCCCCUGACAGUGCUAUGGGGGCCUGGAAGUUUGGACUGGGCAGAGCUCAGCACAGCGUGGCAAAGUAGCAGUGGCUAGACUGCCUCUCUGGAUUCCUCGUCACUCAGCAGGGCAUCUCUGAGAGAAAUGCC [U1A U23C A31U A65G G82A U85A],0.05
19,UACGUAGGCGGUCUUCCCCUGAUAGUGCUAAGGGGGCCUGGAAGUUUGGACUGGGCAGAGCUCGACACAGCGUGGCAAAGUGGCUGUGGCUAGACUGCCUCUCUGGAUUCCUCGUCACUCAGCAGGGCAUCUCUGAGAGAAAUGCC [U9C U13C A64G],0.88
